Results reported in the supplement of paper PMC3334620.
Whole data set: some 33,000 sequences, median “E-score (-0.5 to 0.5)” near -0.017, cut for the highest 2% near 0.3. This is one part of the list.

Biological target: T1, Sut1 (UniProt P53032)
T1 sequence: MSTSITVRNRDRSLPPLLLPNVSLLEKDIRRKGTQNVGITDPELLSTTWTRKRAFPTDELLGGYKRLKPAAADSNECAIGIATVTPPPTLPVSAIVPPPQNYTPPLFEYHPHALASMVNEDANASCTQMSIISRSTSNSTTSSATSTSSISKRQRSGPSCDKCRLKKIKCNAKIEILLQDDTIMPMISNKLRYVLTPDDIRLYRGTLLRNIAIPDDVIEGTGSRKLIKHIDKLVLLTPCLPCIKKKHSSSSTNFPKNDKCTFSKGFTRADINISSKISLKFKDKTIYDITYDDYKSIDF
Assay: PBM E-score (8-mer binding enrichment) (E-score (-0.5 to 0.5)); higher = stronger / more preferred TF binding; most listed sequences are background and not binding sites
Details: protein concentration: 200 nM; construct: GST-full length
Description: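 Universal 'all 10-mer' protein binding microarrays (Agilent AMADID 015681) probed with GST-tagged S. cerevisiae TFs (full-length or DBD) made by in vitro transcription/translation (PURExpress), about 100-200 nM. Bound TF was detected with fluorescent anti-GST. Each ungapped 8-mer (which stands for itself and its reverse complement) is scored by the PBM enrichment score (E-score), a modified Wilcoxon-Mann-Whitney statistic from -0.5 to +0.5, computed with the Universal PBM Analysis Suite. Scale: above 0.35 generally sequence-specific binding.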

| Sequence | PBM E-score |
| --- | --- |
| GCACTAGA | -0.132 |
| ATCAGAGC | -0.0648 |
| CTAGCCCC | -0.155 |
| ATACGTTA | 0.127 |
| AACGATAG | -0.00337 |
| CCTCGTGC | -0.256 |
| GCTTAGCA | 0.0681 |
| ACTCATAG | 0.0406 |
| CAAGCGAC | -0.181 |
| CCTCGGAA | 0.215 |
| CTCAATAA | -0.0175 |
| TCAACACA | 0.186 |
| AGTCCAAT | 0.0933 |
| TACCGTAA | 0.198 |
| GCGCGGCA | -0.114 |
| AGGGCACG | -0.298 |
| AAAGGGTC | 0.0631 |
| GCTATCGA | -0.0248 |
| CTCCTCAC | -0.202 |
| GTAGTCCA | -0.0313 |
| GCTGTAAA | -0.0202 |
| ATCGCAGC | -0.147 |
| CCGGCAGC | -0.0612 |
| AGGCTCCG | 0.357 |
| AAACGGGG | 0.0944 |

| Sequence | PBM E-score |
| --- | --- |
| ATACACAA | 0.166 |
| CGTCTGGC | 0.0238 |
| CTACGCAG | -0.104 |
| CACCAACA | -0.0378 |
| AGGTACAG | -0.198 |
| AGTGGCTC | -0.122 |
| CATCTGTA | -0.0504 |
| AAGAACTA | 0.132 |
| TAGAAACA | 0.142 |
| TCGAGTCA | -0.161 |
| GATATTGA | 0.234 |
| GTCGCCAA | -0.119 |
| GAATTTAA | 0.134 |
| TCACAACA | 0.112 |
| CCACTCAA | 0.0739 |
| CCGCCTGC | -0.3 |
| ATATGACA | 0.123 |
| ATGTTGGG | -0.182 |
| CATGGCGA | -0.149 |
| CTACCACA | -0.113 |
| CGGGTTCC | -0.022 |
| AACTGAAC | 0.16 |
| TACAGCAA | 0.0592 |
| AACCCTTA | 0.0433 |
| AGGAAGGA | -0.258 |

| Sequence | PBM E-score |
| --- | --- |
| CATAAAAC | 0.135 |
| CCAGCTGA | -0.0817 |
| GGGGGAGA | -0.1 |
| ACACCTTC | -0.0207 |
| GCTAGGCA | -0.269 |
| ATTCGACA | 0.0131 |
| AGCCGCGG | -0.0103 |
| AGGACGGC | -0.193 |
| CTCGTCAG | -0.237 |
| ACATGCCA | 0.0142 |
| CCGCTCTC | -0.0819 |
| AAATTAGG | 0.231 |
| AGGACTAC | -0.118 |
| ACCCAGAA | 0.0581 |
| AATAATTC | 0.268 |
| ATCCCTGC | -0.22 |
| ATAATGAA | 0.251 |
| GCCTCTGA | -0.292 |
| AAGAGTCC | 0.101 |
| ATTTAGGA | 0.135 |
| CAGGCACC | -0.358 |
| CGCCTTGC | -0.14 |
| AGGATTTG | 0.0444 |
| TGACGTAA | 0.0762 |
| ATAGCAGG | 0.0363 |

| Sequence | PBM E-score |
| --- | --- |
| CGCTGTAG | -0.14 |
| AACTCAGG | -0.135 |
| CGTCTTAG | -0.212 |
| AGGAGATA | -0.155 |
| GGGCCGTA | -0.0712 |
| GACCAGAC | -0.203 |
| ACGCGGAG | 0.362 |
| CGGTCCCC | -0.121 |
| GCGCGCCC | -0.153 |
| GCGCACTA | -0.0946 |
| ACTATTGC | 0.127 |
| CTACAACA | 0.00887 |
| AAGTGAAA | 0.194 |
| ATAGACGA | 0.125 |
| CCATGAAG | -0.00887 |
| CTAGCCCA | -0.118 |
| ATCAGCTA | -0.158 |
| CGCTCACA | -0.166 |
| AGGACCTG | -0.134 |
| AGTTCAGA | 0.0905 |
| AGGATGTC | -0.0323 |
| GAAACATA | 0.0844 |
| CTGGCGGA | -0.189 |
| CGATGACA | -0.0645 |
| ACAATAGC | 0.0185 |

| Sequence | PBM E-score |
| --- | --- |
| GTGCGGCA | -0.126 |
| CCGTCTGA | -0.0521 |
| CCGTTTGA | 0.036 |
| ACTTAAGA | 0.217 |
| GCTTACAC | -0.201 |
| ACGTTGGG | -0.251 |
| ATCCTGCC | -0.302 |
| CCGCTCAC | -0.144 |
| GGAACAAC | 0.132 |
| CCGTAACG | -0.0564 |
| TCAGGAGA | 0.0262 |
| AACGTGTC | -0.136 |
| GGAGAGCC | -0.289 |
| ACGGTATA | -0.115 |
| GAGGTAAA | 0.0978 |
| GAGGGAAC | -0.0987 |
| GTGGCGAA | -0.115 |
| GAACAGCA | 0.0832 |
| ACAGTCGT | -0.0727 |
| CCGAGGAC | 0.0966 |
| GAAACGTA | 0.0643 |
| GCTCAACA | -0.0496 |
| AAGCGACT | 0.0273 |
| ATGACAAC | 0.184 |
| GATGCGAC | -0.173 |

| Sequence | PBM E-score |
| --- | --- |
| GTTTCCCA | 0.0552 |
| ACTTGCCT | -0.0394 |
| CACGAAGC | -0.14 |
| AAAATTCC | 0.288 |
| CGCGGCAC | -0.125 |
| ACGGGGTA | -0.0603 |
| ACTTCGTC | 0.0543 |
| AGTTCCGA | 0.196 |
| GCATTTGA | 0.21 |
| CCGACTTC | -0.075 |
| TGCATAAA | 0.163 |
| AAGACTCT | -0.0107 |
| AGGACCTC | -0.0609 |
| GGTTGTCA | -0.119 |
| CTAGGACA | -0.117 |
| AAGCTTCA | -0.0716 |
| ACAATACT | 0.0977 |
| CTTGCTGA | -0.0969 |
| CACCGCCC | -0.182 |
| CCTATAGG | -0.265 |
| ACACGGAT | 0.0295 |
| CGAGTGTA | -0.189 |
| CGCGAGTC | -0.0475 |
| GCAAACCC | -0.0925 |
| AAACGGGT | 0.0207 |

| Sequence | PBM E-score |
| --- | --- |
| GTAAGGGA | -0.0702 |
| CTTAATCA | 0.171 |
| ACGACATA | -0.19 |
| AACGTTGC | -0.121 |
| AGCAGCGA | -0.0229 |
| AAACAGGA | -0.0964 |
| GATCAATC | -0.117 |
| GCCAACGC | -0.19 |
| CAGCGCTG | -0.0402 |
| CCGTAGGA | -0.163 |
| CTACTAGA | -0.0398 |
| CCCTTTAG | -0.175 |
| CTAACCAG | -0.0356 |
| CAAATATG | -0.00478 |
| TAATGCAA | -0.042 |
| ATCTCTCC | -0.0902 |
| AAGACGAA | 0.0901 |
| CCGACAGC | 0.00168 |
| ATACGAAG | 0.105 |
| AAATAAAC | 0.274 |
| GACCGCCC | -0.134 |
| AAGTCTGT | -0.0602 |
